From PubChem BioAssay AID1508623 (National Center for Advancing Translational Sciences (NCATS), 2021)
Out of some 48,000 compounds screened, about 450 (0.94%) were called active. Inconclusive results (about 19%) are left out. The call rests on the fitted dose curve; in most records, active means well fitted inhibition curve with a large enough effect; inconclusive means small, poorly fitted or top-dose-only effect; inactive means no such curve, though single readings can be large or run the other way. The list shows a part of the results.

Assay: Primary qHTS for Identification of Small Molecule Inhibitors of Huntingtin Promoter Activity; further: nearly all actives have a fitted effect of over 50% in size
Conditions: HEK293 HTT promoter firefly luciferase reporter (activity 0% = vehicle and -100% = no light), 24 h; series mostly up to 57.5 µM; activity change, negative = inhibition: at the top concentration
Procedure, shortened: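 Firefly luciferase signal from promoter-reporter HEK293 cells was scaled between vehicle (0%) and zero RLU (-100%). Compounds were tested at final concentrations of up to 57.5 uM over 24 h at 37 degrees C. PTC124 at 50 uM final served as control inhibitor.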

**Q.** With `CNS(=O)(=O)c1cn(CC(=O)N2CCN(c3ccc(Cl)cc3)CC2)cc1S(=O)(=O)NC` as the compound, how does the “activity change, negative = inhibition” value read?
**A.** inactive: -0.215%

**Q.** For `COc1ccc(C(=O)COC(=O)CCCC(=O)Nc2ccc(C(C)=O)cc2)cc1`, which “activity change, negative = inhibition” value is on record?
**A.** inactive: 65.9%

**Q.** With `CCOc1ccc(-n2nc(CO)c(C(=O)NCC(c3ccccc3)c3ccccc3)n2)cc1` as the compound, how does the “activity change, negative = inhibition” value read?
**A.** inactive: -0.744%

**Q.** With `O=c1ccc2cc(S(=O)(=O)NCc3ccc(Cl)cc3)ccc2[nH]1` as the compound, how does the “activity change, negative = inhibition” value read?
**A.** inactive: -18.3%

**Q.** With `O=C(NCc1ccccc1)c1cccc(N2CCCS2(=O)=O)c1` as the compound, how does the “activity change, negative = inhibition” value read?
**A.** inactive: 0.875%

**Q.** For `O=C(CSc1nccn1Cc1ccc(F)cc1)NCc1ccccc1`, which “activity change, negative = inhibition” value is on record?
**A.** inactive: -11.3%

**Q.** For `COc1ccc(-n2ncc(C(=O)NCc3ccc4c(c3)OCO4)c2C2CCN(C(=O)OC(C)(C)C)CC2)cc1`, which “activity change, negative = inhibition” value is on record?
**A.** inactive: -19.8%

**Q.** With `Cc1ccccc1CNC(=O)Cc1csc2ccccc12` as the compound, how does the “activity change, negative = inhibition” value read?
**A.** inactive: 44.2%

**Q.** For `CCN(CC)C(=O)c1sc2c(c1C)c(=O)n(Cc1ccccc1)c(=O)n2CC(=O)Nc1ccc(OC)cc1`, which “activity change, negative = inhibition” value is on record?
**A.** inactive: -19.8%

**Q.** With `O=C(OCC(O)CO)c1ccccc1Nc1ccnc2cc(Cl)ccc12` (stereo not drawn) as the compound, how does the “activity change, negative = inhibition” value read?
**A.** inactive: -4.96%

**Q.** Which “activity change, negative = inhibition” value does the source give for `COC(=O)c1ccc(-n2nnc(-c3nsc(NC(=O)c4ccc(Cl)cc4)n3)c2C)cc1` here?
**A.** inactive: -3.63%

**Q.** Which “activity change, negative = inhibition” value does the source give for `O=c1c(NCCc2ccc(Cl)cc2)nccn1-c1ccccc1` here?
**A.** inactive: -29.5%

**Q.** With `COc1ccccc1NC(=O)CCNS(=O)(=O)c1ccc2c(c1)CCN2C(=O)C1CC1` as the compound, how does the activity change, negative = inhibition read?
**A.** inactive: -15.3% [at 11.5 µM]

**Q.** With `COc1ccc(OC)c(CCNC(=O)c2cc3cccc4c3n2CCS4)c1` as the compound, how does the “activity change, negative = inhibition” value read?
**A.** inactive: -24.1%

**Q.** For `Cc1cc2n(n1)CCCN2C(=O)Nc1ccc(C)c(Cl)c1`, which “activity change, negative = inhibition” value is on record?
**A.** inactive: -20.8%

**Q.** With `CCN(Cc1ccccc1)C(=O)CCS(=O)(=O)c1cc(Br)cc2c1N(C(=O)C1CC1)CC2` as the compound, how does the “activity change, negative = inhibition” value read?
**A.** inactive: -22.7%

**Q.** For `CN(c1ccccc1)S(=O)(=O)c1nnc(NC(=O)c2cccs2)s1`, which “activity change, negative = inhibition” value is on record?
**A.** inactive: -2.6%

**Q.** Which “activity change, negative = inhibition” value does the source give for `CCOc1ccccc1NC(=O)Cn1c(=O)n(CCCCC(=O)NCCCOC)c(=O)c2ccccc21` here?
**A.** inactive: -11.4%

**Q.** With `c1ccc2[nH]ccc2c1` as the compound, how does the “activity change, negative = inhibition” value read?
**A.** inactive: -10.5%

**Q.** With `Cc1ccc2[nH]c3c(=O)n(CC(=O)NCCCN4CCN(c5ccc(F)cc5)CC4)ncc3c2c1` as the compound, how does the “activity change, negative = inhibition” value read?
**A.** inactive: 6.12%

**Q.** For `CCc1ccccc1N(C)C(=O)c1cc2c(Cl)nc3ccc(C)cc3c2s1`, which “activity change, negative = inhibition” value is on record?
**A.** inactive: -4.68%

**Q.** For `CCc1ccc(NC(=O)Cn2nnc(C(=O)NCCc3ccccc3)c2N)cc1`, which “activity change, negative = inhibition” value is on record?
**A.** inactive: -8.99%

**Q.** With `N#Cc1ccccc1Cn1c(=O)n(-c2ccccc2)c(=O)c2c3c(sc21)CCC3` as the compound, how does the “activity change, negative = inhibition” value read?
**A.** inactive: 10.5%

**Q.** Which “activity change, negative = inhibition” value does the source give for `O=C(NCc1cccc(F)c1)C1CCN(c2nn3cc(-c4ccc(F)cc4)nc3s2)CC1` here?
**A.** inactive: 0.346%

**Q.** Which “activity change, negative = inhibition” value does the source give for `CC1CCN(S(=O)(=O)c2ccc3c(c2)oc(=O)n3CC(=O)N2CCCCC2)CC1` here?
**A.** inactive: -30.4%

**Q.** Which “activity change, negative = inhibition” value does the source give for `Cc1cccc(C)c1NC(=O)c1nc(SC(C)C)ncc1Cl` here?
**A.** inactive: -31.2%

**Q.** Which “activity change, negative = inhibition” value does the source give for `O=C(Nc1ccc(O)c(-c2nc3ccccc3o2)c1)c1ccc(-c2cccc(Cl)c2)o1` here?
**A.** inactive: -2.6%

**Q.** Which “activity change, negative = inhibition” value does the source give for `COCCCNC(=O)C1CCN(C(=O)c2ccc(-n3ccc4ccccc43)s2)CC1` here?
**A.** inactive: 35.3%

**Q.** Which “activity change, negative = inhibition” value does the source give for `Cc1cc(C)cc(N(CC(=O)Nc2ccc(C)cc2Cl)S(=O)(=O)c2c(C)[nH]c(=O)[nH]c2=O)c1` here?
**A.** inactive: -26.3%

**Q.** Which “activity change, negative = inhibition” value does the source give for `Cc1cc(O)c2c(c1)C(=O)c1cccc(O)c1C2=O` here?
**A.** inactive: -7.91%

**Q.** Which “activity change, negative = inhibition” value does the source give for `COc1cccc(CNC(=O)CSc2nnc(C)c3c(C)n(-c4ccccc4)nc23)c1` here?
**A.** inactive: -19.8%

**Q.** For `NC(=O)c1cn(Cc2c(F)cccc2F)nn1`, which “activity change, negative = inhibition” value is on record?
**A.** inactive: 0.109%

**Q.** Which “activity change, negative = inhibition” value does the source give for `Cc1ccccc1Nc1c(-c2ccc(O)cc2)nc2c(C)cccn12` here?
**A.** inactive: -16.1%

**Q.** Which “activity change, negative = inhibition” value does the source give for `COc1ccc(NC(=O)CCS(=O)(=O)c2cc3c4c(c2)CCN4C(=O)CC3)cc1OC` here?
**A.** inactive: -21.1%

**Q.** With `CCC(C(=O)Nc1ccc(F)cc1F)n1nc(-c2ccccc2)c2c(c1=O)CCCC2` (stereo not drawn) as the compound, how does the “activity change, negative = inhibition” value read?
**A.** inactive: -23.2%

**Q.** With `COc1cc2c(N3CCN(C(=O)Nc4ccc(OC(C)C)cc4)CC3)ncnc2cc1OCCCN1CCCCC1` as the compound, how does the activity change, negative = inhibition read?
**A.** inactive

**Q.** With `Cc1nc(N)c(S(=O)(=O)c2ccccc2)c(Nc2ccc(Br)cc2)n1` as the compound, how does the “activity change, negative = inhibition” value read?
**A.** inactive: 4.78%

**Q.** For `CC(=O)N1c2ccccc2CC1C(=O)N1CCN(c2cc(Cl)ccc2C)CC1` (stereo not drawn), which “activity change, negative = inhibition” value is on record?
**A.** inactive: -13.5%

**Q.** Which “activity change, negative = inhibition” value does the source give for `Cc1cccc(OCC(=O)NCc2ccc3c(c2)CCN3C(=O)c2ccc(Cl)cc2)c1` here?
**A.** inactive: -17.4%

**Q.** With `O=C(c1cccn1-c1nnc(N2CCCC2)s1)N1CCN(c2ccc(F)cc2)CC1` as the compound, how does the “activity change, negative = inhibition” value read?
**A.** inactive: -11.8%

**Q.** For `O=C(c1ccc(F)cc1)N1CCN(CCc2ccncc2)CC1`, which “activity change, negative = inhibition” value is on record?
**A.** inactive: 0.0875%

**Q.** Which “activity change, negative = inhibition” value does the source give for `COc1ccc(-c2nnc(SCC(=O)Nc3ccc(C)c(Cl)c3)nc2-c2ccc(OC)c(OC)c2)cc1OC` here?
**A.** inactive: -23.2%

**Q.** Which “activity change, negative = inhibition” value does the source give for `CC(=O)Nc1ccc(NC(=O)CN2C(=O)CCc3cc(S(=O)(=O)N4CCCCC4)ccc32)cc1` here?
**A.** inactive: -12%

**Q.** For `O=C(Cn1cc(SCc2ccc(Cl)cc2)c2ccccc21)N1CCCC1`, which “activity change, negative = inhibition” value is on record?
**A.** inactive: -13%

**Q.** For `O=C(Nc1ccc(F)cc1)Nc1nnc(SCC(=O)N2CCCCC2)s1`, which “activity change, negative = inhibition” value is on record?
**A.** inactive: -10.3%

**Q.** For `CC(C(=O)O)c1ccc(-c2ccccc2)c(F)c1` (stereo not drawn), which “activity change, negative = inhibition” value is on record?
**A.** inactive: -10.6%

**Q.** For `Cc1cccc(CNC(=O)CN2CC(C)Sc3ccccc32)c1` (stereo not drawn), which “activity change, negative = inhibition” value is on record?
**A.** inactive: -1.06%

**Q.** With `Cc1c(Cl)cccc1-n1nnc(-c2nc(-c3ccc4c(c3)OCO4)no2)c1C` as the compound, how does the “activity change, negative = inhibition” value read?
**A.** inactive: 48.2%
